This is an account of results in ChEMBL document CHEMBL4888484, “Replenishing the malaria drug discovery pipeline: Screening and hit evaluation of the MMV Hit Generation Library 1 (HGL1) against asexual blood stage Plasmodium falciparum ,using a nano luciferase reporter read-out” (2022).

As usually defined, the % Inhibition is the relative decrease from the control value, in per cent.

Out of some 150,000 compounds screened, about 540 (0.36%) showed an effect of 50% or more. The list shows a part of the results.

The subject of the assay is Plasmodium falciparum. The assay is described as follows: Primary screen in NF54 nanoGlo assay, in single point, at 2uM, 72h; a lower Z score goes with more inhibition. It counts as functional, Erythrocyte. The conditions noted are these: timepoint 72 hour.
For `CS(=O)(=O)C1(c2noc([C@@H]3CCc4ccccc4O3)n2)CCCC1`, the “% Inhibition” value came to 1% and the Z score is given as -0.09.

`O=C(O)C1CC[C@@H](c2ccccc2)N1C(=O)Cc1cccnc1` (stereo not given in full): the “% Inhibition” value is -1% and the Z score amounted to 0.15.

For `CCOC(=O)[C@]12CCCN[C@@H]1CCN(C(=O)NCc1ccc(C)cc1)C2`, the “% Inhibition” value is 1% and the Z score is -0.19.

Regarding `CCc1ccc(S(=O)(=O)N2CCC(N3CCN(Cc4ccccc4)C(=O)C3=O)CC2)cc1`, the “% Inhibition” value is given as -9% and the Z score came to 1.66.

With `O=C(c1cccnc1)N1CCOc2ccc(CN3CCCCCC3)cc2C1`, the “% Inhibition” value is -7% and the Z score is on record as 0.7.

As for `O=C(Cn1nc(N2CCOCC2)c2ccccc2c1=O)Nc1ccc(Cl)cc1C(F)(F)F`, the “% Inhibition” value is given as -26% and the Z score is 3.94.

With `N#Cc1c2c([nH]c(=O)c1C(=O)O)CCCCCC2`, the “% Inhibition” value is recorded as 8% and the Z score is reported as -0.96.

For the compound `CO[C@H]1C[C@H]2CN(C(=O)c3ccncn3)[C@@H](Cc3ccccc3)C(=O)N2C1`, the “% Inhibition” value is recorded as -8% and the Z score is on record as 1.25.

In the case of `CCO[C@H]1COC[C@@H]1NC(=O)c1cc(Cl)c(C)c(Cl)c1`, the “% Inhibition” value is reported as -8% and the Z score is 0.99.

Turning to `Cc1ccccc1NC(=O)C1CCN(c2cc(N3CCCC3)ncn2)CC1`, the “% Inhibition” value is recorded as -3% and the Z score is recorded as 0.58.

`c1cnn(C2CN(CC3CCCC3)C2)c1`: the “% Inhibition” value was 3% and the Z score is recorded as -0.52.

As to `Cc1cnc(C(C)(C)NC(=O)N[C@@H](C)c2nccs2)s1`, the “% Inhibition” value is listed as -6% and the Z score is listed as 0.89.

On to `COc1cc(C(=O)OCc2nccn2C)ccc1F`, for which the “% Inhibition” value came to 31% and the Z score is given as -3.46.

On to `COC(=O)[C@@H](NC(=O)c1ccccc1N1CCC(=O)NC1=O)c1ccccc1`, for which the “% Inhibition” value is -14% and the Z score stood at 1.82.

Turning to `Cc1[nH]c2ccc(CNc3cc(C(=O)N4CCCCC4)ccn3)cc2c1C`, the “% Inhibition” value was -18% and the Z score is given as 1.78.

`C[C@@H](CNC(=O)N(C)C1CC[S+]([O-])CC1)c1ccc(F)cc1F` (stereo not given in full): the “% Inhibition” value amounted to 2% and the Z score is reported as -0.24.

As for `Cn1ccnc1CCNC(=O)COC[C@H]1CCCCO1`, the “% Inhibition” value worked out at 1% and the Z score is given as -0.17.

Turning to `O=C(NC1CN(Cc2ccccc2)CCC1CO)c1ccnnc1` (stereo not given), the “% Inhibition” value was -4% and the Z score was determined as 0.61.

In the case of `O=C1CCCc2cc(-c3csc(N4CCCCC4)n3)ccc2N1`, the “% Inhibition” value is -7% and the Z score came to 1.32.

In the case of `CC1=CCCC(C)C1CNc1[nH]ncc1C#N` (stereo not given), the “% Inhibition” value is -7% and the Z score turned out to be 0.93.

Turning to `COC[C@H]1NC(=O)CC[C@H]1C(=O)Nc1ccc(N2CCOCC2)cc1`, the “% Inhibition” value was -1% and the Z score was 0.07.

In the case of `CN1CCC(NCC2(c3ccc(F)cc3Cl)CC2)CC1`, the “% Inhibition” value is listed as -3% and the Z score is on record as 0.38.

Turning to `CN(CC#N)CCC(=O)Nc1ccccc1`, the “% Inhibition” value was 3% and the Z score is given as -0.53.

Consider `CCOc1ccc(NC(=O)Cc2c(C)nc(C)[nH]c2=O)cc1`, for which the “% Inhibition” value is on record as -6% and the Z score was 1.19.

As for `Cc1cccc(OCC(=O)N[C@@H]2CN(c3ncccn3)C[C@H]2CO)c1`, the “% Inhibition” value was -7% and the Z score amounted to 0.99.

On to `NCCc1c(-c2cccnc2)[nH]c2ccccc12`, for which the “% Inhibition” value was -20% and the Z score came to 2.36.

In the case of `O=C(Nc1ccccc1C(F)(F)F)NC(CO)(CO)C(F)(F)F`, the “% Inhibition” value is -4% and the Z score came to 0.4.

Consider `Cc1nc(NCC2CC3CCC2O3)nc(C)c1CC(C)C` (stereo not given), for which the “% Inhibition” value is recorded as -6% and the Z score was 0.81.

Consider `Cc1ccnc(NC(=O)Cc2csc(-c3ccoc3)n2)n1`, for which the “% Inhibition” value is -13% and the Z score is recorded as 1.13.

Take `O=C(c1ccn2c(-c3ccccc3)nnc2c1)N1CCN(c2ccccc2)CC1`: the “% Inhibition” value is on record as -13% and the Z score is listed as 1.5.

`O=C(Cn1nc2c(Cl)cccn2c1=O)N1CCC[C@H](C(F)(F)F)C1`: the “% Inhibition” value is recorded as -8% and the Z score came out at 1.05.

Turning to `Cc1ccc(N2C(=O)C3C4CC5C(OC2C53)C4O)cc1` (stereo not given), the “% Inhibition” value is listed as -5% and the Z score is reported as 0.77.

In the case of `Cc1cc(Nc2cccc(Cl)c2C)n2nc(-c3ccco3)nc2n1`, the “% Inhibition” value is listed as -19% and the Z score is 2.25.

In the case of `C[C@](O)(CNC(=O)C(=O)Nc1cccc(C(F)(F)F)c1)c1cc2ccccc2o1`, the “% Inhibition” value was -12% and the Z score is recorded as 1.56.

Consider `COc1ccccc1CNC(=O)c1nn[nH]c1Nc1ccccc1`, for which the “% Inhibition” value is given as -14% and the Z score is 1.56.

As for `Cc1nn(Cc2ncnn2CCCO)c(=O)c2ccccc12`, the “% Inhibition” value is 3% and the Z score is recorded as -0.43.

As to `O=c1[nH]cnc2ncc(-c3ccccc3)nc12`, the “% Inhibition” value is given as -41% and the Z score is listed as 4.8.

Regarding `COc1ccc(F)c(CN2CCCO[C@@H](CN3CCOCC3)C2)c1`, the “% Inhibition” value was -11% and the Z score is on record as 1.93.

Turning to `CC(NC(c1cccc(C(F)(F)F)c1)C1CC1)C(=O)N(C)C` (stereo not given), the “% Inhibition” value stood at 8% and the Z score was -1.12.

With `O=C(Nc1cc(F)cc(F)c1F)N1C[C@H]2CC[C@@H](C1)[C@H]2O`, the “% Inhibition” value is 4% and the Z score is given as -0.77.

Take `Cc1nc(NCc2cncn2CC(C)C)c(C(N)=O)cc1C(=O)O`: the “% Inhibition” value is reported as -9% and the Z score is recorded as 1.24.

With `COc1ccccc1CC(=O)NCc1cccnc1-n1ccnc1`, the “% Inhibition” value is 3% and the Z score was -0.47.

As to `Cc1nnc(N2CCN(C(=O)[C@@]34CCC[C@@H]3C4)CC2)c(C(N)=O)c1C`, the “% Inhibition” value was -2% and the Z score turned out to be 0.39.

On to `CC(=O)Nc1cc2c3c(c1)C1C=CCC1C(c1ccc(F)cc1)N3CC1CC=CC21` (stereo not given), for which the “% Inhibition” value came to 6% and the Z score is -0.9.

For the compound `O=C(CNC1(c2nccs2)CCCC1)NCc1ccccn1`, the “% Inhibition” value was -15% and the Z score is reported as 1.76.

For the compound `CC(C)c1noc(CN2CCN(C(=O)N(C)C)[C@H]3CS(=O)(=O)C[C@H]32)n1`, the “% Inhibition” value is listed as -3% and the Z score turned out to be 0.42.

With `CNC(=O)c1noc2c1CN(C(=O)c1oc3cc(OC)ccc3c1C)CC2`, the “% Inhibition” value is listed as -6% and the Z score was 1.21.

Regarding `Cc1cccc(N2CCN(C(=O)c3ccc(N4CCOc5ccc(Cl)cc54)s3)CC2)c1C`, the “% Inhibition” value is reported as -2% and the Z score was 0.29.

Regarding `COCc1ccc(CN(C)C[C@]2(O)CCc3ccccc32)o1`, the “% Inhibition” value was -9% and the Z score worked out at 1.16.

As to `Cc1cnc(NC(=O)[C@@H]2CC(c3ccccc3)=NO2)s1`, the “% Inhibition” value is given as -10% and the Z score is listed as 1.57.

`Cc1nnc(CN(C)C(=O)Nc2ccc(C(C)(C)C(F)(F)F)cc2)s1`: the “% Inhibition” value is listed as 15% and the Z score was -1.71.

With `CNC(=O)c1ccc(N2CCCO[C@H](C(C)C)C2)nc1`, the “% Inhibition” value is -1% and the Z score amounted to 0.2.

For the compound `CCC1(CC)CCN(C(=O)C[C@H]2CCOC2)C1`, the “% Inhibition” value is reported as -11% and the Z score was 1.26.

Turning to `C=CCN1C[C@H](C)N(C(=O)C2CCN(C(=O)CC)CC2)C[C@@H]1C`, the “% Inhibition” value was -8% and the Z score turned out to be 1.72.

As for `CCc1nc(-c2csc(S(=O)(=O)N3CCC[C@H](C(=O)N4CCc5ccccc54)C3)c2)no1`, the “% Inhibition” value was -10% and the Z score was 1.14.
